Source: the DeepSol protein solubility set

Assay: soluble on expression in E. coli; label from the status in PepcDB or PDB records

Row | Sequence | soluble on expression in E. coli
1 | GEFKGLDSKTFLSEHSMDMKFTYCDDRITELIGYHPEELLGRSAYEFYHALDSENMTKSHQNLCTKGQVVSGQYRMLAKHGGYVWLETQGTVIYNPRNLQPQCIMCVNYVLSEIEKN | soluble
2 | MGLLFTPLELRGLRLKNRLAMSPMCQYSATEGGEVTDWHLLHYPTRALGGVGLVIVEATAVLPEGRISPFDLGIWSEDHLPGLRELARRIREAGAVPGIQLAHAGRKAGTARPWEGGRPLGWKVVGPSPIPFAEGYPVPEALDEAGMARVLEAFVEGAKRALRAGFLVVELHMAHGYLLSSFLSPLANRREDAYGGSRENRMRFPLEVARAVREAIPPELPLFVRVSATDWAEGGWGLEDTLAFAERLKALGVDLLDLSSGGVVPGVRVPVAPGFQVPFADAVRKRVGMPTGAVGLLTTPEQAETVLQAGSADLVLLGRVLLRDPYFPLKAAKALGAEAPVPPQYQRAF | soluble
3 | MGSDKIHHHHHHGKPIELTPLPLLKDVPSSEQPELFLKKLQQCCVIFDFMDTLSDLKMKEYKRSTLNELVDYITISRGCLTEQTYPEVVRMVSCNIFRTLPPSDSNEFDPEEDEPTLEASWPHLQLVYEFFIRFLESQEFQPSIAKKYIDQKFVLQLLELFDSEDPRERDYLKTVLHRIYGKFLGLRAFIRKQINNIFLRFVYETEHFNGVAELLEILGSIINGFALPLKAEHKQFLVKVLIPLHTVRSLSLFHAQLAYCIVQFLEKDPSLTEPVIRGLIKFWPKTCSQKEVMFLGELEEILDVIEPSQFVKIQEPLFKQIAKCVSSPHFQVAERALYYWNNEYIMSLIEENSNVILPIMFSSLYRISKEHWNPAIVALVYNVLKAFMEMNSTMFDELTATYK | not soluble
4 | MHYPEPLSKLIDSFMKLPGIGPKTAARLAFHVLAMKEDTVLEFAKALVDVKRHIHYCTICGHITDTDPCYICKDERRNRTTICVVQDPKDVIAMERMKEYNGLYHVLHGAISPMEGIGPEDIKIAELLTRLQDETVQEVILATDPNIEGEATAMYISRLLKPTGIKVTRIAHGLPVGGDLEYADEVTLSKALEGRREL | not soluble
5 | MPFGNTHNKWKLNYSAAEEFPDLSKHNNHMAKALTLDIYKKLRDKETPSGFTLDDIIQTGVDNPGHPFIMTVGCVAGDEECYEVFKDLFDPVIEDRHGGYKPTDKHKTDLNQENLKGGDDLDPNYVLSSRVRTGRSIKGIALPPHCSRGERRLVEKLCIDGLATLTGEFQGKYYPLSSMSDAEQQQLIDDHFLFDKPISPLLLASGMARDWPDGRGIWHNNDKTFLVWVNEEDHLRVISMQKGGNMKEVFRRFCVGLKKIEDIFVKAGRGFMWNEHLGYVLTCPSNLGTGLRGGVHVKIPHLCKHEKFSEVLKRTRLQKRGTGGVDTAAVGSIYDISNADRLGFSEVEQVQMVVDGVKLMVEMEKRLENGKSIDDLMPAQK | soluble
6 | PIYVRFEVPEDLAEKAYEAVKRARETGRIKKGTNETTKAVERGLAKLVVIAEDVDPPEIVMHLPLLCDEKKIPYVYVPSKKRLGEAAGIEVAAASVAIIEPGDAETLVREIVEKVKELRAKAGV | soluble
7 | SYQPTPEDRFTFGLWTVGWQGRDPFGDATRPALDPVETVQRLAELGAHGVTFHDDDLIPFGSSDTERESHIKRFRQALDATGMTVPMATTNLFTHPVFKDGGFTANDRDVRRYALRKTIRNIDLAVELGAKTYVAWGGREGAESGAAKDVRVALDRMKEAFDLLGEYVTSQGYDIRFAIEPKPNEPRGDILLPTVGHALAFIERLERPELYGVNPEVGHEQMAGLNFPHGIAQALWAGKLFHIDLNGQSGIKYDQDLRFGAGDLRAAFWLVDLLESAGYEGPRHFDFKPPRTEDIDGVWASAAGCMRNYLILKERAAAFRADPEVQEALRASRLDELAQPTAADGVQELLADRTAFEDFDVDAAAARGMAFERLDQLAMDHLLGAR | soluble
